In paper PMC8141872 (The Journal of Biological Chemistry, 2021):
Where a chain is given by its changes, count along the chain named. In names and notes the source's numbering stands.

B1: GST-fused PINCH-1 LIM4-5 domains ([…]) (domain or fragment, human)
chain: GVPICGACRRPIEGRVVNAMGKQWHVEHFVCAKCEKPFLGHRHYERKGLAYCETHYNQL[here about 80 residues without letters]
notes: human PINCH-1 LIM4-5 domains, […]; Cloned in pGEX4T1; held on the anti-GST biosensor; also called PINCH-1 LIM4-5 domains (WT); source: E. coli Rosetta 2 (DE3), purified (GSTrap)
B2: GST-fused PINCH-1 LIM5 domain ([…]) (domain or fragment)
chain: not shown
notes: human PINCH-1 LIM5 domain, […]; Cloned in pGEX4T1; held on the anti-GST biosensor; also called PINCH-1 LIM5 domain (WT); source: E. coli Rosetta 2 (DE3), purified (GSTrap)
B3: GST-fused PINCH-1 LIM5 domain ([…]) D295V (domain or fragment)
chain: not shown
notes: human PINCH-1 LIM5 domain, […], with Asp295Val; also called PINCH-1 LIM5 domain (D295V); source: E. coli Rosetta 2 (DE3), purified (GSTrap)

Columns and labels:
[1] = molecular target: T1, Ras suppressor-1 (Rsu-1), wild type, full length (human, UniProt Q15404 1-277); experiment: BLI; BLItz; GST-fused PINCH protein or GST (0.05 mg/ml) loaded on anti-GST biosensor, Rsu-1 WT or mutant in the mobile phase; 20 mM Tris pH 7.5, 150 mM NaCl, 1 mg/ml BSA, 0.05% Tween-20; 1:1 global fit; at least three measurements; details: both partners purified
T1 construct: after thrombin cleavage a few of its residues probably remain (surmised); also called Rsu-1 (WT); Rsu-1 WT; not shown: His6, N-terminal, cleaved
T1 sequence (looked up): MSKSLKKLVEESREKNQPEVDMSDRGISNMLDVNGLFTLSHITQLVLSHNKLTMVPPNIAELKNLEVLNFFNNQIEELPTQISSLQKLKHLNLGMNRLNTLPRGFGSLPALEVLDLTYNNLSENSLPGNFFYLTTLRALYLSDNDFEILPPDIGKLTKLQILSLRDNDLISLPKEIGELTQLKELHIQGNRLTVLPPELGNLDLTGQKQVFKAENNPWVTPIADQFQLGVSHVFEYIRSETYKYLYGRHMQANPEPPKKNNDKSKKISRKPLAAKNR

[2] = molecular target: T2, Rsu-1 double mutant FRAA (Phe71Ala, Arg165Ala) (human, UniProt Q15404 1-277, Phe71Ala | Arg165Ala); experiment: as above; details: both partners purified
T2 construct: human Ras suppressor-1 (Rsu-1), residues 1-277, with Phe71Ala and Arg165Ala; also called Rsu-1 (FRAA); double-negative mutant; source: baculovirus-infected Sf-9 insect cells, purified as for the wild type; not shown: His6, N-terminal, cleaved
T2 sequence (looked up): T1 sequence (looked up) with F71A, R165A

| Binder | Kd [1] | Kd [2] |
| --- | --- | --- |
| B1 | 1.37 ± 0.5 nM | – |
| B2 | 1.77 ± 0.59 nM | 1390 ± 100 nM |
| B3 | 1520 ± 200 nM | – |
